From PubChem BioAssay AID1645887 (National Center for Advancing Translational Sciences (NCATS), 2021)
Values joined by “and” are separate entries in the source; they are usually repeats but may differ in a detail not shown here. Equal values may be shown once. Screen size: about 16,000 compounds; about 40 (0.2%) were called active. Inconclusive results (about 1%) are left out. The call rests on the fitted dose curve; in most records, active means well fitted activation curve with a large enough effect; inconclusive means small, poorly fitted or top-dose-only effect, or another doubt; inactive means no such curve, though single readings can be large or run the other way. The list shows a part of the results.

Target: Rap guanine nucleotide exchange factor 4 (Homo sapiens) (UniProt Q8WZA2)
Experiment: Validation qHTS for agonist of cAMP-regulated guanine nucleotide exchange factor 4 (EPAC2);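 further: exchange makes BODIPY-GDP fluorescence drop when released from Rap1B; series mostly up to about 150 µM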
Conditions: EPAC2 Rap1B BODIPY-GDP exchange, fluorescence; activation: active compounds read high
Method in brief: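 Signal normalized against 6.5 mM cAMP as agonist control. Mix of EPAC2 (100 nM), RAP1B-BODIPY-GDP (250 nM) and GDP (50 uM) was read kinetically at 480/540 nm, every 5 min over 30 min, after 5 min room-temperature incubation with compound.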
On the % scale 0 is the no-effect control and ±100 the full control effect.

Sequence of UniProt Q8WZA2 (Q8WZA2 whole entry, looked up): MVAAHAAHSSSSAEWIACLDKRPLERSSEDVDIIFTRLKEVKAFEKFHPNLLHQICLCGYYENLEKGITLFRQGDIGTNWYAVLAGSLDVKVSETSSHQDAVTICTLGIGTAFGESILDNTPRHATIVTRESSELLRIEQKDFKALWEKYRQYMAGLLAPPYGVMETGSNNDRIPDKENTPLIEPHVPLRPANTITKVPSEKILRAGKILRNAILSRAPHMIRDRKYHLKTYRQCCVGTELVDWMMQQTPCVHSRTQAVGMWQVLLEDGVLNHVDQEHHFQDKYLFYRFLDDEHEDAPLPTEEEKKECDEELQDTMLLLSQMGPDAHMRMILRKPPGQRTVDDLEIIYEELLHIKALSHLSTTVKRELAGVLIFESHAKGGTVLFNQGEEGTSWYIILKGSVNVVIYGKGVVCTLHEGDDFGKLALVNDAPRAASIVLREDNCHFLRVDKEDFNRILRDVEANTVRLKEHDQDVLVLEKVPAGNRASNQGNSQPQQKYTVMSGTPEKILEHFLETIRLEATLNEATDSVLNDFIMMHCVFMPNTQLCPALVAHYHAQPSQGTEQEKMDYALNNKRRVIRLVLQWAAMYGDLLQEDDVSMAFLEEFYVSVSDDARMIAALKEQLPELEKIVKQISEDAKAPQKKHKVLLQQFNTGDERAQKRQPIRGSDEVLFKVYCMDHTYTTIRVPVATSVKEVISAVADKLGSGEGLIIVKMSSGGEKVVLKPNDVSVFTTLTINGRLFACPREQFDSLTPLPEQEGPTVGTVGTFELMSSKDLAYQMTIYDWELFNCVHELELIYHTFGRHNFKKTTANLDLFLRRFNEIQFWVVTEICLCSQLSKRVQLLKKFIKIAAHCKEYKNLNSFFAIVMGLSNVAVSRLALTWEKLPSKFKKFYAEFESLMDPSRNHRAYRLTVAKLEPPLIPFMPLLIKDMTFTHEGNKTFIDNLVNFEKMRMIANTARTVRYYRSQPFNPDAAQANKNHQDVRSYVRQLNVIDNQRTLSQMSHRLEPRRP

| Structure (SMILES) | activation |
| --- | --- |
| CCOC(=O)[C@]12Cc3ccsc3[C@H]1N(Cc1ccccc1)C(=O)c1ccccc12 | inactive: 4.67% |
| COC(=O)[C@@H](N)CCCN/C(N)=N/[N+](=O)[O-] | inactive: -17.6% |
| O=C1C=CC[C@@H]2[C@H]3CCCN4CCC[C@@H](CN12)[C@@H]34 | inactive: -25.4% |
| CC(C)(C#N)O[C@H]1OC(CO)C(O)C(O)C1O (stereo partly drawn) | inactive: -11.4% |
| CC12NC(Cc3ccccc31)c1ccccc12 (stereo not drawn) | inactive: -21.4% |
| COc1cc2c(cc1O)CCNC2C (stereo not drawn) | inactive: -16.1% |
| CC1=C(O)C(=O)[C@@H]2O[C@@H]2C1=O | inactive: -14.8% |
| C[N+]1([O-])[C@@H]2CC(OC(=O)[C@H](CO)c3ccccc3)C[C@H]1[C@@H]1O[C@@H]12 (stereo partly drawn) | inactive: 7.95% |
| CCCCCCCCOC(=O)c1ccccc1C(=O)OCCCCCCCC | inactive: -17.3% |
| NC(CCCCCP(=O)(O)O)C(=O)O (stereo not drawn) | inactive: -0.675% |
| O=C(Oc1ccccc1)N1CCC2(CC1)CN(C(c1ccccc1)c1ccccc1)C2 | inactive: -6.88% |
| O=S(=O)(O)C(F)(F)C(F)(F)C(F)(F)C(F)(F)C(F)(F)C(F)(F)C(F)(F)C(F)(F)F | inactive: -77.5% |
| CNC1C2CN3CCC(O2)C13 (stereo not drawn) | inactive: -16.5% |
| O=C1Nc2cc(Cl)c(Cl)cc2N2CCNC[C@H]12 | inactive: -17.3% |
| CC1(C)[C@H](C=C(Cl)Cl)[C@H]1C(=O)OCc1c(F)c(F)cc(F)c1F | inactive: 10.8% |
| COc1c2c(cc3c1OCO3)CCN(C)C2 | inactive: -14.5% |
| N[C@H](Cc1o[nH]c(=O)c1Cl)C(=O)O | inactive: -13.1% |
| CN1CCc2cccc(Cl)c2CC1 | inactive: -29.2% |
| C[C@]12CC[C@@H]3c4ccc(OC(=O)N(CCCl)CCCl)cc4CC[C@H]3[C@@H]1CC[C@@H]2OP(=O)(O)O | inactive: -18% and inactive: 6.74% |
| CC(C)CN1CC[C@@]2(CCCN(C(=O)c3ccncc3)C2)C1 | inactive: 0.262% |
| C=CCN1CC[C@]23c4c5ccc(O)c4O[C@H]2C(=O)CC[C@@]3(O)[C@H]1C5 | inactive: 1.16% and inactive: 12.7% |
| CCCOC(=O)c1cc2c(cn1)[nH]c1ccccc12 | inactive: -12.9% |
| Cc1ccc2cc3c(ccc4ccccc43)c3c2c1CC3 | inactive: 0.985% |
| OCCOc1ccccc1 | inactive: -4.2% and inactive: 4.42% |

| Structure (SMILES) | activation |
| --- | --- |
| O=C(Nc1cccc(F)c1)N1CC2(CCNCC2)C1 | inactive: 6.07% |
| CCN1C[C@@]2(C)CC[C@@H](OC)[C@@]34C2C(O)[C@@]2(OCO[C@]25CC(OC)C2C[C@@]3(O)C5C2O)C14 (stereo partly drawn) | inactive: -13.2% |
| ClC1C(Cl)C(Cl)C(Cl)C(Cl)C1Cl (stereo not drawn) | inactive: -21.9% and inactive: -9.8% |
| O=C(CN1CCCC2CCCCC21)c1ccc(I)cc1 (stereo not drawn) | inactive: -21.4% |
| CCCCC[C@@H](/C=C/C=C\C/C=C\C/C=C\CCCC(=O)O)OO | inactive: -4.71% |
| CN1CCC2(CC1)CCN(C(=O)Oc1ccccc1)CC2 | inactive: -11.8% |
| O=c1n(Cl)c(=O)n(Cl)c(=O)n1Cl | inactive: -24.7% |
| CP(=O)(O)C1=CCNCC1 | inactive: 1.27% and inactive: -25.3% |
| C[C@@H]1O[C@H](C[N+](C)(C)C)C[C@H]1O | inactive: -0.33% |
| NC(=O)c1cc(N2CC2)c([N+](=O)[O-])cc1[N+](=O)[O-] | inactive: -30.1% |
| Cn1cc(C2=C(c3cn(C4CCN(Cc5ccccn5)CC4)c4ccccc34)C(=O)NC2=O)c2ccccc21 | inactive: -2.49% |
| O=[N+]([O-])c1ccc(F)c([N+](=O)[O-])c1 | inactive: -5.15% |
| COC(=O)C1=CO[C@@H](C)[C@@H]2CN3CCc4c([nH]c5cc(OC)ccc45)[C@@H]3C[C@H]12 | inactive: -7.73% |
| O=Cc1ccco1 | inactive: 10.9% |
| CN1CC[C@@]2(c3cccc(O)c3)Cc3nc4ccccc4cc3C[C@H]2C1 | inactive: -6.05% |
| C[C@]12C[C@H]3S[C@H]3C[C@@H]1CC[C@@H]1[C@@H]2CC[C@]2(C)[C@@H](O)CC[C@@H]12 | inactive: 4.26% |
| COP(=O)(OC)C(O)C(Cl)(Cl)Cl (stereo not drawn) | inactive: -5.47% |
| CNC(C)Cc1ccccc1 (stereo not drawn) | inactive: -10.7% |
| CCCC(C)C1(CC)C(=O)NC(=O)NC1=O (stereo not drawn) | inactive: -24.2% |
| C=CCc1ccc2c(c1)OCO2 | inactive: -5.83% |
| CC(CC(C#N)(c1ccccc1)c1ccccc1)N(C)C (stereo not drawn) | inactive: 4.42% |
| Oc1cc2c(cc1O)[C@H]1c3ccccc3CN[C@H]1CC2 | inactive: -3.78% and inactive: 12.4% |
| COc1cc2c(cc1OC)[C@@H]1C(=O)c3ccc(O)c(CC=C(C)C)c3OC1CO2 (stereo partly drawn) | inactive: -1.39% |
| Fc1ccc(C(OCCN2CCN(C/C=C\c3ccccc3)CC2)c2ccc(F)cc2)cc1 | inactive: -13.7% |

| Structure (SMILES) | activation |
| --- | --- |
| CC1(C)C(=O)C=C[C@@]2(C)C1CC(O)[C@]1(C)C2CC[C@@]2(C)C(c3ccoc3)OC(=O)C3O[C@]312 (stereo partly drawn) | inactive: -8.73% |
| CC(=O)C1CCC2C3CCC4CC(O)CCC4(C)C3CC(O)C12C (stereo not drawn) | inactive: -16.6% |
| O=C(Nc1ccccc1)N1CCCC2(CCN(C(=O)Oc3ccccc3)CC2)C1 | inactive: -20.5% |
| C[C@H](NC(=O)[C@@H](N)Cc1ccc(O)cc1)C(=O)N[C@@H](Cc1ccccc1)C(=O)NCC(=O)N[C@@H](Cc1ccc(O)cc1)C(=O)N1CCC[C@H]1C(=O)N[C@@H](CO)C(N)=O | inactive: -0.804% |
| CCCCNC(C)(C)[P+](=O)O | inactive: -6.54% |
| CC(C)C(Br)C(=O)NC(N)=O (stereo not drawn) | inactive: 1.37% |
| CC(C)(C)NC[C@H](O)COc1cccc2[nH]c(C#N)cc12 | inactive: 2.76% |
| COP(=O)(OC)OC=C(Cl)Cl | inactive: -18.9% |
| CC(=O)c1c(O)c(C)c(O)c(Cc2c(O)c3c(c(C(=O)/C=C\c4ccccc4)c2O)OC(C)(C)C=C3)c1O | inactive: -19.4% |
| COCC(=O)N1CCC2(CCCN(Cc3ccncc3)C2)CC1 | inactive: -25.9% |
| CCCN1CCc2cc(O)cc3c2C1Cc1ccc(O)c(O)c1-3 (stereo not drawn) | inactive: 8.25% |
| S=C=NCc1ccccc1 | inactive: -11.4% |
| C[C@]12CCC(=O)C=C1C=C[C@@H]1[C@@H]2CC[C@@]2(C)[C@H]1CC[C@@]2(O)CCC(=O)O | inactive: -16.9% |
| [Cl-].[Cl-].[Hg+2] | inactive: -14.7% |
| S=C(S)N1CCNCC1 | inactive: 4.81% |
| C[C@]12N[C@@H](Cc3ccccc31)c1ccccc12 | inactive: -23% and inactive: -6.56% |
| NC(=O)CI | inactive: -21.7% |
| CN1CCC(O)(c2ccc(F)cc2)C(C(=O)c2ccc(F)cc2)C1 (stereo not drawn) | inactive: 5.78% |
| CCOP(=S)(OCC)SCn1c(=O)oc2cc(Cl)ccc21 | inactive: 6.23% |
| Cc1cccc(C)c1NC(=O)CN1CCCC1=O | inactive: -14% |
| CS(=O)(=O)Nc1ccc(Cc2noc(-c3ccc4[nH]cc(CCN)c4c3)n2)cc1 | inactive: 8.63% and inactive: -5.38% |
| CC(C)C[C@H]1C(=O)N2CCCC2[C@]2(O)O[C@](NC(=O)[C@@H]3C=C4c5cccc6[nH]cc(c56)CC4N(C)C3)(C(C)C)C(=O)N12 (stereo partly drawn) | inactive: -39.3% |
| c1ccc(N2CCCC3(CCNCC3)C2)nc1 | inactive: -5.49% |
| O=C(O)COc1ccc(Cl)cc1Cl | inactive: -8.76% |

| Structure (SMILES) | activation |
| --- | --- |
| CC(C)C[C@H](NC(=O)[C@H](Cc1ccccc1)NC(=O)CNC(=O)[C@H](CO)NC(=O)[C@@H](N)Cc1ccc(O)cc1)C(=O)N[C@H](C(=O)O)[C@H](C)O | inactive: 9.65% |
| CCNc1nc(Cl)nc(NCC)n1 | inactive: -21.1% |
| c1ccc2sc(C3(NCC4CC4)CCCCC3)cc2c1 | inactive: 1.14% |
| C=CCC1=C(C)C(OC(=O)C2C(C=C(C)C)C2(C)C)CC1=O (stereo not drawn) | inactive: -30.2% |
| CCC1(c2ccccc2)C(=O)NC(=O)NC1=O | inactive: -4.98% |
| COc1ccc2[nH]c3c(c2c1)CCNC3 | inactive: 18.7% |
| C/C=C1/CN2CC[C@]34C(=C(C=O)[C@@H]1C[C@H]23)Nc1c(O)cccc14 | inactive: -17.6% |
| CCN(CC)C(=O)N[C@@H]1C=C2c3cccc4[nH]cc(c34)C[C@@H]2N(C)C1 | inactive: 18.8% |
| COc1cc(CC(C)N)c(OC)cc1I (stereo not drawn) | inactive: -19.9% |
| CN1CCN(c2ncc3ncc(=O)n(C)c3n2)CC1 | inactive: -13.4% |
| O=C(O)C1=CCCN(CCOC(c2ccc(C(F)(F)F)cc2)c2ccc(C(F)(F)F)cc2)C1 | inactive: -51.8% |
| CCCCC/C=C\C/C=C\CCCCCCCC(=O)NCCO | inactive: -17.5% |
| O=C(CCl)c1ccc(Cl)cc1Cl | inactive: 13.7% and inactive: -7.13% |
| C#C[C@]1(O)CC[C@H]2[C@@H]3CCC4=CC(=O)CCC4=C3C=C[C@@]21CC | inactive: -24.4% |
| CCC1(c2ccccc2)C(=O)N(COC)C(=O)N(COC)C1=O | inactive: -9.02% |
| O=C1/C(=C\c2ccccc2)C[C@@]2(O)[C@H]3Cc4ccc(O)c5c4[C@@]2(CCN3CC2CC2)[C@@H]1O5 | inactive: -21.8% |
| O=[N+]([O-])C(Br)(CO)CO | inactive: -15.4% |
| ClC(Cl)=C(c1ccc(Cl)cc1)c1ccc(Cl)cc1 | inactive: -22.2% |
| CCOC(=O)C1C(C=C(C)C)C1(C)C (stereo not drawn) | inactive: -2.82% |
| CCCCC/C=C\C/C=C\C/C=C\C=C\[C@H](CCCC(=O)O)OO | inactive: -9.15% |
| Oc1ccc2c3c1OC1C(O)CC[C@]4(O)C(C2)N(CC2CCC2)CC[C@]314 (stereo partly drawn) | inactive: -9.68% |
